Results as given in publication PMC6042961.
No constants are given. Whether binding was seen depends on the method and setting. Binding seen in cells or lysates may run through a third protein. Some binding calls cover weakened binding; strength is not graded here. For part of these data: Where a sequence is shown, tags or fusion partners need not be part of it. Values belong to the binder of their own block, whether it stands above or below them.

Assays:
human FRMD8-V5 (human) = target: T1, human FRMD8-V5 (human) (UniProt Q9BZ67); experiment: co-IP; lysates in 1% Triton X-100, 150 mM NaCl, 50 mM Tris-HCl pH 7.5; anti-HA or anti-V5 magnetic beads 1 hr at 4°C; wash with 300 mM NaCl; western blot; HEK293T cells (wild type, ADAM17 KO, FRMD8 KO, or iRhom1/2 DKO reconstituted with iRhom2^WT-3xHA; with or without 200 nM PMA for 30 min)
T1 sequence: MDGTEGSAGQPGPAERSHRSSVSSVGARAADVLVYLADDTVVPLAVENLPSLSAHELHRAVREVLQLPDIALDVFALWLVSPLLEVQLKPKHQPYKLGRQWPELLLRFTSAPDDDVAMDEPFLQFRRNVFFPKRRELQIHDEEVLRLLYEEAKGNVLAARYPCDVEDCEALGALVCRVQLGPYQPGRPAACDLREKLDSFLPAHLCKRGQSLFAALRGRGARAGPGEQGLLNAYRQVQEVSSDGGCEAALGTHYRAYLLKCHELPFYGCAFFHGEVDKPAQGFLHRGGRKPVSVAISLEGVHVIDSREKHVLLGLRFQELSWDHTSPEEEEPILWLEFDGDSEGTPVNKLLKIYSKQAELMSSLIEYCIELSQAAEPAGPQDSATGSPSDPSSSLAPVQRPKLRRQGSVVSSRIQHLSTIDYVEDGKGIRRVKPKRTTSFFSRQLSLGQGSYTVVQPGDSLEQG

[1] = target: T2, human iRhom2-3xHA (human) (UniProt Q6PJF5); experiment: as above
T2 sequence: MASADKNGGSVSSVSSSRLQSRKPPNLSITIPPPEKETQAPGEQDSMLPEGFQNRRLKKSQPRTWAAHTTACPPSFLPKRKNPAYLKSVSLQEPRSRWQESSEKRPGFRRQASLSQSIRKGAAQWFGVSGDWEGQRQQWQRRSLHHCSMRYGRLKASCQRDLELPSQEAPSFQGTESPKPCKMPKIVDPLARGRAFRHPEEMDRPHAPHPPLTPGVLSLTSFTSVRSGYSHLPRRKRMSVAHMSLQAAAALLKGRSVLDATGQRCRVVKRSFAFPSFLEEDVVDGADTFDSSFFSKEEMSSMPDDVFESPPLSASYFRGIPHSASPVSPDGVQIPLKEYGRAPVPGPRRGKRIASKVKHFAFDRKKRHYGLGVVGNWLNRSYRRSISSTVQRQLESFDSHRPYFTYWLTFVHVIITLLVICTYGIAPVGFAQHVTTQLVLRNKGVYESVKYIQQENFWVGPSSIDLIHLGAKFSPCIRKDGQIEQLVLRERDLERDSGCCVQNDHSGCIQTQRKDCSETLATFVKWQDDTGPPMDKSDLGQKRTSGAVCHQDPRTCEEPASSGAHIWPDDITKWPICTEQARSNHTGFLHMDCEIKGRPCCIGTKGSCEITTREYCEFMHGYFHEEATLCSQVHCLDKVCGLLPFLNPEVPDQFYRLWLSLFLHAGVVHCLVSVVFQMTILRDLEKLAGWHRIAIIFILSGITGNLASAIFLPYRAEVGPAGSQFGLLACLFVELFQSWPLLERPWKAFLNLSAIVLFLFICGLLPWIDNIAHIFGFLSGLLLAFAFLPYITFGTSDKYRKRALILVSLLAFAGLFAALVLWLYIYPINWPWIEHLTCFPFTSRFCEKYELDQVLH

binding (human FRMD8-V5 (human)): binds
B1: human iRhom2-3xHA (protein, UniProt Q6PJF5-1 1-856)
chain: T2 sequence

binding (human FRMD8-V5 (human)): binds
B2: human iRhom1-3xHA (protein, UniProt Q96CC6 1-855)
chain: MSEARRDSTSSLQRKKPPWLKLDIPSAVPLTAEEPSFLQPLRRQAFLRSVSMPAETAHISSPHHELRRPVLQRQTSITQTIRRGTADWFGVSKDSDSTQKWQRKSIRHCSQRYGKLKPQVLRELDLPSQDNVSLTSTETPPPLYVGPCQLGMQKIIDPLARGRAFRVADDTAEGLSAPHTPVTPGAASLCSFSSSRSGFHRLPRRRKRESVAKMSFRAAAALMKGRSVRDGTFRRAQRRSFTPASFLEEDTTDFPDELDTSFFAREGILHEELSTYPDEVFESPSEAALKDWEKAPEQADLTGGALDRSELERSHLMLPLERGWRKQKEGAAAPQPKVRLRQEVVSTAGPRRGQRIAVPVRKLFAREKRPYGLGMVGRLTNRTYRKRIDSFVKRQIEDMDDHRPFFTYWLTFVHSLVTILAVCIYGIAPVGFSQHETVDSVLRNRGVYENVKYVQQENFWIGPSSEALIHLGAKFSPCMRQDPQVHSFIRSAREREKHSACCVRNDRSGCVQTSEEECSSTLAVWVKWPIHPSAPELAGHKRQFGSVCHQDPRVCDEPSSEDPHEWPEDITKWPICTKNSAGNHTNHPHMDCVITGRPCCIGTKGRCEITSREYCDFMRGYFHEEATLCSQVHCMDDVCGLLPFLNPEVPDQFYRLWLSLFLHAGILHCLVSICFQMTVLRDLEKLAGWHRIAIIYLLSGVTGNLASAIFLPYRAEVGPAGSQFGILACLFVELFQSWQILARPWRAFFKLLAVVLFLFTFGLLPWIDNFAHISGFISGLFLSFAFLPYISFGKFDLYRKRCQIIIFQVVFLGLLAGLVVLFYVYPVRCEWCEFLTCIPFTDKFCEKYELDAQLH

binding [1]: binds
B3: endogenous FRMD8 (protein, UniProt Q9BZ67 1-464)
chain: T1 sequence
